Assay results published in patent US20260207606A1, “DOSING SCHEDULE OF A SOLID DISPERSION OF A HER2 INHIBITOR” (Boehringer Ingelheim International GmbH, priority 2022, published 2026).

Test system: HER2 aberration-positive advanced and/or metastatic solid tumours
Assay: Phase Ia dose escalation trial: tumour response according to RECIST v1.1, duration of treatment and response
Assay type: in vivo, human
From the text: Tumour assessments should include computed tomography (CT) scans of the chest, abdomen/pelvis (or PET/CT) and a brain MRI at screening. If clinically indicated, imaging of any other known or suspected sites of disease (e.g. bone) using an appropriate method (CT scan, MRI, PET/CT, or bone scan) should be performed. The same radiographic procedure must be used throughout the trial. Assessments will be performed by the investigator at screening (≤28 days prior to initiation of treatment), every 2 cycles (6 weeks ±5 days), at the end-of-treatment (EOT) visit (if not performed within the previous 3 weeks), and at the discretion of the investigator, and copies may be collected by the sponsor or designee. Wherever possible the assessment schedule should not be changed, but if there is an interruption or delay to treatment, alteration of the tumour assessment schedule to align with clinical assessments is allowed. Additional unscheduled tumour assessments may be performed at the discretion of the investigator. If the patient stops trial medication for a reason other than progression, tumour assessment according to RECIST v1.1 continues until progression (or until one of the following occurs; death, lost to follow-up, end of the trial).
Tumour response is evaluated according to RECIST Version 1.1 (Eisenhauer E A, Therasse P, Bogaerts J, Schwartz L H, Sargent D, Ford R, et al. New response evaluation criteria in solid tumours: revised RECIST guideline (version 1.1). Eur J Cancer. 2009; 45:228-247). RECIST 1.1 is used for a) whole-body assessment (classical RECIST 1.1) and b) the tumour assessment of non-CNS areas. The assessment according to classical RECIST 1.1 by the investigator and/or the local radiologist is the basis for continuation or discontinuation of the trial in an individual patient (in addition to safety). No whole-body RECIST assessment is performed in the dose escalation part.

[1] = 60 mg QD, 5 patients, regardless of confirmation, data lock 17 Mar. 2023
[2] = 120 mg QD, 4 patients, regardless of confirmation, data lock 17 Mar. 2023
[3] = 180 mg QD, 6 patients, regardless of confirmation, data lock 17 Mar. 2023
[4] = 240 mg QD, 6 patients, regardless of confirmation, data lock 17 Mar. 2023
[5] = 300 mg QD, 5 patients, regardless of confirmation, data lock 17 Mar. 2023
[6] = 32 of 36 patients with tumour response assessments, BID and QD
[7] = QD Total, 26 patients, regardless of confirmation, data lock 17 Mar. 2023
[8] = excluding patients with best overall response non-evaluable at data cut-off

C=CC(=O)NC1CCN(c2ncc3ncnc(Nc4ccc(Oc5ccc6c(c5)ncn6C)c(C)c4)c3n2)CC1 [compound (1), N-{1-[8-({3-methyl-4-[(1-methyl-1H-1,3-benzodiazol-5-yl)oxy]phenyl}amino)-[1,3]diazino[5,4-d]pyrimidin-2-yl]piperidin-4-yl}prop-2-enamide]
Best overall response (RECIST 1.1): Complete response, % (15 mg BID): 0.0% | Best overall response (RECIST 1.1): Non-CR/Non-PD, % (15 mg BID): 0.0% | Best overall response (RECIST 1.1): Not evaluable, % (15 mg BID): 0.0% | Best overall response (RECIST 1.1): Partial response, % (15 mg BID): 0.0% | Best overall response (RECIST 1.1): Progressive disease, % (15 mg BID): 0.0% | Best overall response (RECIST 1.1): Stable disease, % (15 mg BID): 100.0% | Best overall response (RECIST 1.1): Complete response, % (30 mg BID): 0.0% | Best overall response (RECIST 1.1): Non-CR/Non-PD, % (30 mg BID): 0.0% | Best overall response (RECIST 1.1): Not evaluable, % (30 mg BID): 0.0% | Best overall response (RECIST 1.1): Partial response, % (30 mg BID): 66.7% | Best overall response (RECIST 1.1): Progressive disease, % (30 mg BID): 0.0% | Best overall response (RECIST 1.1): Stable disease, % (30 mg BID): 33.3% | Best overall response (RECIST 1.1): Complete response, % (60 mg BID): 0.0% | Best overall response (RECIST 1.1): Non-CR/Non-PD, % (60 mg BID): 0.0% | Best overall response (RECIST 1.1): Not evaluable, % (60 mg BID): 0.0% | Best overall response (RECIST 1.1): Partial response, % (60 mg BID): 50.0% | Best overall response (RECIST 1.1): Progressive disease, % (60 mg BID): 0.0% | Best overall response (RECIST 1.1): Stable disease, % (60 mg BID): 50.0% | Best overall response (RECIST 1.1): Complete response, % [1]: 0.0% | Best overall response (RECIST 1.1): Non-CR/Non-PD, % [1]: 0.0% | Best overall response (RECIST 1.1): Not evaluable, % [1]: 0.0% | Best overall response (RECIST 1.1): Partial response, % [1]: 40.0% | Best overall response (RECIST 1.1): Progressive disease, % [1]: 20.0% | Best overall response (RECIST 1.1): Stable disease, % [1]: 40.0% | Best overall response (RECIST 1.1): Complete response, % (100 mg BID): 0.0% | Best overall response (RECIST 1.1): Non-CR/Non-PD, % (100 mg BID): 0.0% | Best overall response (RECIST 1.1): Not evaluable, % (100 mg BID): 0.0% | Best overall response (RECIST 1.1): Partial response, % (100 mg BID): 25.0% | Best overall response (RECIST 1.1): Progressive disease, % (100 mg BID): 0.0% | Best overall response (RECIST 1.1): Stable disease, % (100 mg BID): 75.0% | Best overall response (RECIST 1.1): Complete response, % [2]: 0.0% | Best overall response (RECIST 1.1): Non-CR/Non-PD, % [2]: 0.0% | Best overall response (RECIST 1.1): Not evaluable, % [2]: 0.0% | Best overall response (RECIST 1.1): Partial response, % [2]: 50.0% | Best overall response (RECIST 1.1): Progressive disease, % [2]: 25.0% | Best overall response (RECIST 1.1): Stable disease, % [2]: 25.0% | Best overall response (RECIST 1.1): Complete response, % (150 mg BID): 0.0% | Best overall response (RECIST 1.1): Non-CR/Non-PD, % (150 mg BID): 0.0% | Best overall response (RECIST 1.1): Not evaluable, % (150 mg BID): 33.3% | Best overall response (RECIST 1.1): Partial response, % (150 mg BID): 33.3% | Best overall response (RECIST 1.1): Progressive disease, % (150 mg BID): 0.0% | Best overall response (RECIST 1.1): Stable disease, % (150 mg BID): 33.3% | Best overall response (RECIST 1.1): Complete response, % [3]: 0.0% | Best overall response (RECIST 1.1): Non-CR/Non-PD, % [3]: 0.0% | Best overall response (RECIST 1.1): Not evaluable, % [3]: 16.7% | Best overall response (RECIST 1.1): Partial response, % [3]: 16.7% | Best overall response (RECIST 1.1): Progressive disease, % [3]: 0.0% | Best overall response (RECIST 1.1): Stable disease, % [3]: 66.7% | Best overall response (RECIST 1.1): Complete response, % [4]: 0.0% | Best overall response (RECIST 1.1): Non-CR/Non-PD, % [4]: 0.0% | Best overall response (RECIST 1.1): Not evaluable, % [4]: 50.0% | Best overall response (RECIST 1.1): Partial response, % [4]: 33.0% | Best overall response (RECIST 1.1): Progressive disease, % [4]: 16.7% | Best overall response (RECIST 1.1): Stable disease, % [4]: 0.0% | Best overall response (RECIST 1.1): Complete response, % [5]: 0.0% | Best overall response (RECIST 1.1): Non-CR/Non-PD, % [5]: 0.0% | Best overall response (RECIST 1.1): Not evaluable, % [5]: 80.0% | Best overall response (RECIST 1.1): Partial response, % [5]: 0.0% | Best overall response (RECIST 1.1): Progressive disease, % [5]: 0.0% | Best overall response (RECIST 1.1): Stable disease, % [5]: 20.0% | PD, patients [6]: 3 | best tumor response of partial response (PR), regardless of confirmation, patients [6]: 12 | complete response (CR), patients [6]: none of the patients | stable disease, patients [6]: 17 | patients with at least one PR assessment, % (35 patients treated for at least one cycle of 21 days on Jan. 23, 2023): 37.14% | Best overall response (RECIST 1.1): Complete response, % (BID Total): 0.0% | Best overall response (RECIST 1.1): Non-CR/Non-PD, % (BID Total): 0.0% | Best overall response (RECIST 1.1): Not evaluable, % (BID Total): 5.9% | Best overall response (RECIST 1.1): Partial response, % (BID Total): 35.3% | Best overall response (RECIST 1.1): Progressive disease, % (BID Total): 0.0% | Best overall response (RECIST 1.1): Stable disease, % (BID Total): 58.8% | Best overall response (RECIST 1.1): Complete response, % [7]: 0.0% | Best overall response (RECIST 1.1): Non-CR/Non-PD, % [7]: 0.0% | Best overall response (RECIST 1.1): Not evaluable, % [7]: 30.8% | Best overall response (RECIST 1.1): Partial response, % [7]: 26.9% | Best overall response (RECIST 1.1): Progressive disease, % [7]: 11.5% | Best overall response (RECIST 1.1): Stable disease, % [7]: 30.8% | patients with at least one PR assessment, % (QD schedule, 18 patients): 38.89% | median duration of response (Kaplan Meier estimates) (all treated patients): 7 months | disease control rate (DCR) [8]: 95.8% | overall response rate (ORR) [8]: 45.8% | exposure-response relationships for tumor shrinkage and ORR (higher dose range (180 mg-300 mg)): Flat
